Measurements as given in PubChem BioAssay AID686970 (National Center for Advancing Translational Sciences (NCATS), 2013).
The whole screen tested about 360,000 compounds, of which about 6,000 (1.7%) were called active. The inconclusive results got no clear call from the source; some entries with a clear call stand among them for comparison. Calls come from the whole dose curve; as a rule, active = well fitted cell-killing curve with a large enough effect; inconclusive = small, poorly fitted or top-dose-only effect, or effect the other way; inactive = flat fitted curve, though single readings scatter. Potencies of inconclusive entries are left out as doubtful fits.

Test: qHTS for induction of synthetic lethality in tumor cells producing 2HG: qHTS for the HT-1080-NT fibrosarcoma cell line;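 note: NT is the 2HG producing partner of a matched IDH1 knockdown line; nearly all actives have a fitted effect of over 55% in size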;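 for activity, negative = less viability: 0% = DMSO-treated cells and -100% = media-only wells without cells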
Conditions: HT-1080-NT fibrosarcoma viability, CellTiter-Glo ATP luminescence, 48 h; activity, negative = less viability: at 46.1 µM (top of the series) unless noted
How it was run: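 Fibrosarcoma NT cells, 750 per well in 5% FBS RPMI, were exposed to compound for 48 hours. Viability: CellTiter-Glo luminescence.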
Potency is the fitted concentration of half-maximal effect; tags give direction and shape of the fitted curve.

Structure (SMILES)	Potency	activity, negative = less viability
O=C(NCc1cccs1)C1Cc2c(-c3ccc(Cl)cc3)ccnc2O1 (centres undefined)	inconclusive [cytotoxic, full curve]	–
COC(=O)c1ccc(-c2ccc(CNCC(O)c3ccccc3)o2)cc1 (centres undefined)	–	inactive: 7.92%
COc1ccccc1-c1cnc(C(O)c2c(C)cc(C)cc2C)[nH]1 (centres undefined)	inconclusive [cytotoxic, single point]	–
CCOc1ccccc1NC(=O)C1CCCN(C(=O)NCc2ccccc2)C1 (centres undefined)	–	inactive: 1.49%
CCCCNC(=S)NNC(=O)c1csc2c1CCC(C)C2 (centres undefined)	–	inconclusive: -36%
Cc1ccc(NC(=O)c2ncn(CCCN(CCCn3cnc(C(=O)Nc4ccc(C)c(C)c4)n3)Cc3ccc4[nH]ccc4c3)n2)cc1C	active: 16.4 µM	–
C[C@@H]1CCCCO[C@H](CN(C)Cc2ccccc2)[C@@H](C)CN([C@H](C)CO)C(=O)c2cc(NS(=O)(=O)c3ccc(Cl)cc3)ccc2O1	inconclusive [cytotoxic, single point]	–
COc1ccccc1N1CCN(C(=O)c2sc3ncnc(N4CCN(c5ccccn5)CC4)c3c2C)CC1	active: 14.6 µM	–
CN(C)c1ccc(/C=C/c2ccc3ccccc3[n+]2C)cc1	inconclusive [cytotoxic, partial curve]	–
Cc1cc2cc(CCNC(=O)C(=O)c3c[nH]c4ccccc34)c(=O)[nH]c2cc1C	inconclusive [cytotoxic, single point]	–
Nc1ccc(S(=O)(=O)N2CCOCCOCCOCCOCCOCC2)cc1	–	inactive: 11.1%
Cc1ccc(CC(NC(=O)C2CCCCC2)C(=O)O)cc1 (centres undefined)	–	inactive: 1.06%
NC(=O)c1cccc(-c2cnc3c(Nc4cccc(OC(F)(F)C(F)F)c4)nccn23)c1	inconclusive [cytotoxic, single point]	–
C/C(=N\Nc1cc(Cl)nc(C)n1)c1ccccc1	–	inactive: 4.31%
COc1ccccc1NS(=O)(=O)c1cccc(C(=O)NCC(c2ccc(F)cc2)N2CCOCC2)c1 (centres undefined)	–	inactive: 3.17%
CC1(C(=O)NCc2ccc3c(c2)OCO3)CCN1C(=O)CC1CCCC1 (centres undefined)	–	inactive: -5.46%
Cc1ccc(N2/C(=N/c3nc(C)cc(C)n3)NC(=O)CC2C(=O)O)cc1 (centres undefined)	–	inactive: 0.133%
Cc1nc(C)c(-c2csc(Nc3ccc(F)cc3)n2)s1	inconclusive [cytotoxic, partial curve]	–
Cc1ccc(-c2n[nH]c(=S)c3ccccc23)cc1S(=O)(=O)NCC1CCCO1 (centres undefined)	inconclusive [cytotoxic, partial curve]	–
COc1ccc(CCNC(=O)CSc2nc3[nH]ncc3c(=O)n2-c2ccccc2Br)cc1OC	–	inactive: 0.666%
O=C(/C=C/[C@H]1O[C@@H](n2cnc3c(NC(=O)c4ccccc4)ncnc32)[C@H](O)[C@@H]1O)NCc1ccco1	–	inactive: 12.9%
CCN(CC)CCN1C(=O)/C(=C\c2ccc(Cl)c([N+](=O)[O-])c2)SC1=Nc1ccc(OC)cc1	active: 2.59 µM	–
CC(C)(C)c1ccc(C(=O)N/C(N)=N/c2nc3ccccc3o2)cc1	–	inactive: 13.6%
COc1ccc(OC)c(C(=O)CSc2nnc(Cc3cccs3)n2CCc2ccccc2)c1	inconclusive [cytotoxic, single point]	–
Cc1cc2c3c(c1)C1(C(=O)N3C(C)(C)CC2C)C(C#N)=C(N)Oc2cc(O)ccc21 (centres undefined)	inconclusive [cytotoxic, single point]	–

Structure (SMILES)	Potency	activity, negative = less viability
COc1ccccc1CN(C)CC(=O)Nc1cccc(S(=O)(=O)N2CCCC2)c1	–	inactive: -1.01%
Cc1[nH]n(-c2ccccc2)c(=O)c1C(=O)c1ccc(Cl)cc1	inconclusive [cytotoxic, single point]	–
Cc1cc2cc(C)c(NCCNC(=O)c3cccs3)nc2cc1C	inconclusive [cytotoxic, single point]	–
CC(=O)Nc1ccc(C(=O)N/N=C/c2ccccc2OC(=O)c2ccc(Cl)cc2)cc1	inconclusive [cytotoxic, partial curve]	–
CC(=O)Nc1ccc(Nc2nc(C)nc3c2oc2ccccc23)cc1	inconclusive [cytotoxic, single point]	–
CC1CCN(CCc2nc3cc(NC(=O)COc4ccc(Cl)cc4)ccc3n2C)CC1	inconclusive [cytotoxic, single point]	–
CCCCCCCCOC(=O)c1nc(Cl)c(Cl)c(N)c1Cl	inconclusive [cytotoxic, single point]	–
COc1ccc(C(=O)NNC(=O)c2cc3cccc(OC)c3oc2=O)cc1	–	inconclusive: 36.3%
COc1ccc(C2CC(=O)Nc3n[nH]c(-c4ccccc4)c32)cc1OC (centres undefined)	inconclusive [rising, single point]	–
COc1ccc2c(c1)c(CC(=O)Nc1nnc(C3CC3)s1)c(C)n2C(=O)c1ccc(Cl)cc1	active: 23.1 µM	–
Cc1ccc(-c2noc(CC(=O)c3ccc([N+](=O)[O-])cc3)n2)cc1	–	inactive: 0.0348%
CC(NC(=O)CCSc1nc(-c2ccco2)cc(C(F)(F)F)n1)c1ccccc1 (centres undefined)	–	inactive: -1.15%
Nc1ccc(-c2nc3ccccc3s2)cn1	inconclusive [cytotoxic, single point]	–
CC1(C)Cc2c(sc3[nH]c(=S)[nH]c(=O)c23)CO1	–	inactive: 24.3%
CCN1CCc2c(sc(NC(=O)c3ccc(C(=O)c4ccccc4)cc3)c2C(N)=O)C1	active: 20.6 µM	–
O=C(N/N=C/C(Br)=C/c1ccccc1)c1cccnc1	inconclusive [cytotoxic, partial curve]	–
N#Cc1ccsc1NC(=O)COC(=O)c1cc2ccccc2cc1O	–	inconclusive: -30.4% [cytotoxic]
C/C(=N\NC(=O)C1(C)CC1(Br)Br)c1ccc(NC(=O)C2CCC2)cc1 (centres undefined)	inconclusive [cytotoxic, single point]	–
C/C(=N\OCC(=O)Nn1c(C)nc2ccccc2c1=O)c1cccs1	–	inactive: -2.62%
O=C(Nc1ccc(Cc2ccncc2)cc1)C1CCC(N2C(=O)C3C4C=CC(C4)C3C2=O)CC1 (centres undefined)	inconclusive [cytotoxic, single point]	–
Fc1ccc(NC(=S)N/N=C/c2ccc(F)c(F)c2)c(F)c1	–	inactive: 12.4%
CCOC(=O)c1cc(-c2ccncc2)nc2c1c(C)nn2C	inconclusive [cytotoxic, partial curve]	–
CCOC(=O)c1sc(NC(=O)c2ccc(C)o2)nc1C	inconclusive [cytotoxic, single point]	–
COc1ccc(C(=O)CC(=O)Nc2ccc([N+](=O)[O-])cc2)cc1	inconclusive [cytotoxic, single point]	–
COc1ccccc1-n1cc(-c2ccc(C)cc2)[nH]c1=S	active: 10.3 µM	–

Structure (SMILES)	Potency	activity, negative = less viability
COc1c(Cl)cccc1-c1cn2ccccc2n1	inconclusive [cytotoxic, single point]	–
COC(=O)c1sc(N)c(C(=O)OC)c1COC(=O)CCNS(=O)(=O)c1ccc(C)cc1	inconclusive [cytotoxic, partial curve]	–
COc1ccc(-c2cc3c(=O)n(CC(=O)NCCCN4CCC(Cc5ccccc5)CC4)ncn3n2)cc1	inconclusive [cytotoxic, partial curve]	–
CN(C)S(=O)(=O)c1cccc(NC(=O)c2cc(=O)[nH]c(=O)[nH]2)c1	–	inactive: 2.9%
Cc1ccc(NC(=O)C2CCN(S(=O)(=O)c3cnc[nH]3)CC2)nc1	–	inactive: 16.4%
COc1cccc(C(C)=NNc2ccc([N+](=O)[O-])cc2[N+](=O)[O-])c1OC	–	inactive: 9.35%
CC(C)N(c1ccccc1)c1ccc(NC(=O)CCl)cc1	inconclusive [cytotoxic, partial curve, poor fit]	–
Cc1nn2c([nH]c(=O)c3ccccc32)c1C=O	active: 17.8 µM	–
CCN(CC)CCNC(=O)c1ccc(NC(=O)c2cccc(S(=O)(=O)N3c4ccccc4CC3C)c2)cc1 (centres undefined)	inconclusive [cytotoxic, single point]	–
Cc1c(Cl)cnc(NC(=O)COC(=O)[C@@H](NC(=O)c2ccco2)C(C)C)c1Cl	–	inactive: 7.91%
Cc1ccc(/C=C(\C#N)C(=O)Nc2ccccn2)o1	–	inactive: 4.38%
O=c1[nH]nc(Cc2ccc(-c3ccc(Cl)cc3)o2)c2ccccc12	inconclusive [cytotoxic, single point]	–
Cn1ccc2c(N3c4ccccc4CCc4ccccc43)cc3c(c21)C1CCC3C1 (centres undefined)	inconclusive [cytotoxic, single point]	–
Cc1ccc(NC(=S)NC(NC(=O)c2ccco2)C(Cl)(Cl)Cl)cc1 (centres undefined)	inconclusive [cytotoxic, single point]	–
Cc1ccc(C)c(N2CCN(C(=O)c3ccc(CS(=O)Cc4cccc(Cl)c4)o3)CC2)c1 (centres undefined)	–	inactive: -23%
O=C(CNC(=O)c1ccc(Br)o1)NC12CC3CC(CC(C3)C1)C2	–	inactive: 0.315%
CCNC(=O)C1CCCN(C(=O)c2cc(C)oc2C)CC1 (centres undefined)	–	inactive: 25.3%
CNC(=O)COc1ncnc2scc(-c3ccc(F)cc3)c12	–	inactive: 2.37%
CCCCNC(=O)CSc1nc(N)c(C(=O)Nc2ccc(OC)cc2)s1	–	inactive: -16.2%
CN(c1ccccc1)S(=O)(=O)c1cccc(NC(=O)c2ccc3ncsc3c2)c1	inconclusive [cytotoxic, partial curve, poor fit]	–
COCCCNc1nnc(Cc2ccc(Cl)cc2)c(=O)[nH]1	active: 0.92 µM	–
CCn1cc(C(=O)O)c(=O)c2cc(F)c(N3CCNCC3)nc21	–	inactive: 29.7%
CCOC(=O)c1sc(NC(C)=O)nc1-c1ccccc1	–	inactive: -5.66%
CN1C/C(=C/c2ccsc2)C(=O)/C(=C/c2ccsc2)C1	inconclusive [cytotoxic, partial curve, poor fit]	–
